According to PubChem BioAssay AID624171 (National Center for Advancing Translational Sciences (NCATS), 2012):
The whole screen tested about 410,000 compounds, of which about 1,200 (0.29%) were called active. This list was built around the results that the source calls inconclusive (neither active nor inactive); the mix of calls is not that of the screen. Calls follow the shape of the dose curve; as a rule, active = well fitted activation curve with a large enough effect; inconclusive = small, poorly fitted or top-dose-only effect; inactive = flat fitted curve, though single readings scatter. Potencies beside an inconclusive call are fits to weak or partial responses and may not hold up.

Assay: qHTS of Nrf2 Activators; also: nearly all actives have a fitted effect of over 65% in size; as to activation: % of control where 0% means no effect
Conditions: AREc32 ARE-luciferase reporter (MCF7-derived line), luminescence, 24 h; activation: at 46.1 µM (top of the series)
Procedure, shortened: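 ARE-driven firefly luciferase activity in AREc32 cells measured after a 24 hr compound exposure at 37 deg C, using Steady-Glo reagent and a 30 min room-temperature hold.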
Potency is read from the fitted curve at half-maximal effect; tags tell the direction and shape of the fitted curve.

SMILES	activation	Potency
O=C(COC(=O)C1CC1)Nc1ccc(OC(F)F)cc1	inactive: 0.713%	
CCc1c(C)sc(NC(=O)c2ccco2)c1C#N		inconclusive: 1.58 µM [activator, partial curve, poor fit]
COc1ccc(NC(=O)c2cc(-c3ccccc3Cl)on2)cc1		inconclusive: 17.8 µM [activator, single point]
COc1ccc(Cc2c(Cl)ncnc2Cl)cc1		inconclusive: 25.1 µM [activator, single point]
O=C(Nc1cccnc1Cl)c1cc([N+](=O)[O-])ccc1Cl		inconclusive: 31.6 µM [activator, single point]
C/C(O)=C\c1nc2ccccc2oc1=O		active: 15.8 µM
Cc1ccc2nsnc2c1NC(=O)c1ccc(-c2cc(Cl)ccc2Cl)o1	inactive: 4.86%	
Cc1c(Cl)cccc1NC(=O)CSc1ccc(-c2ccccn2)nn1	inactive: 2.15%	
CCN(CC)CC(=O)Nc1ccccc1SCC(=O)Nc1ccsc1C(=O)OC		inconclusive: 12.6 µM [activator, partial curve, poor fit]
O=C(OCc1nc2ccccc2s1)c1ccco1		inconclusive: 22.4 µM [activator, single point]
O=C(Nc1nc2ccsc2c(=O)s1)c1ccc(Cl)cc1		inconclusive: 12.6 µM [activator, partial curve, poor fit]
O=C(COC(=O)/C=C/c1cccc(Cl)c1Cl)Nc1ccc2[nH]c(=O)[nH]c2c1		inconclusive: 15.8 µM [activator, single point]
O=C(N/N=C/C=C/c1ccco1)c1ccccc1Cl		active: 11.2 µM
COc1ccccc1Nc1nc(N)nc(CCl)n1		inconclusive: 15.8 µM [activator, single point]
FC(F)Sc1ccc(NC(=S)NC(c2ccccc2)c2ccccc2)cc1	inactive: -2.6%	
Cc1ccc(C2C3CSCC=C3C(C#N)=C(N)C2(C#N)C#N)cc1 (stereo not drawn)		inconclusive: 35.5 µM [activator, partial curve, poor fit]
O=C(Nc1nccc(-c2cccs2)n1)c1cccs1		inconclusive: 2.24 µM [activator, full curve, poor fit]
COc1ccc(OC)c(NC(=O)c2csc(Cl)c2OC)c1		inconclusive: 7.08 µM [activator, partial curve, poor fit]
Cc1cc(C(=O)OCC(=O)c2cccs2)ccc1[N+](=O)[O-]		inconclusive: 22.4 µM [activator, single point]
CCOC(=O)c1[nH]c(Cc2[nH]c(C(=O)OCC)c(C)c2CCC(=O)OC)c(CCC(=O)OC)c1C	inactive: 2.91%	
Nc1nc(Nc2ccccc2)nc(NCc2ccco2)c1[N+](=O)[O-]	inactive: 4.82%	
O=C(Nc1cccc2ccccc12)c1cnccn1		inconclusive: 10 µM [activator, partial curve]
Clc1ncnc2c1oc1ccccc12		inconclusive: 25.1 µM [activator, single point]

SMILES	activation	Potency
O=C(CNc1cccc2ccccc12)N/N=C/c1ccc(OC(=O)/C=C/c2ccco2)cc1		inconclusive: 12.6 µM [activator, single point]
CCN(CC)Cc1c(NC(=O)c2ccccc2)sc(C)c1C		active: 11.2 µM
Cc1ccc(NC(=O)CN(C)C(=O)Cn2ncc(Cl)c(Cl)c2=O)cc1		inconclusive: 3.55 µM [activator, partial curve, poor fit]
CCc1sc(C(=O)NCc2ccco2)cc1C		inconclusive: 15.8 µM [activator, single point]
CCOc1cc(C2NN=C(c3ccccc3)S2)ccc1OCc1ccccc1Cl (stereo not drawn)		inconclusive: 15.8 µM [activator, partial curve, poor fit]
COc1ccc2[nH]c(=O)c(CN(CCN(C)C)C(=O)NCc3ccccc3)cc2c1	inactive: 2.29%	
CCCN(C(=O)CSCC(=O)Nc1ccc(OC)cc1)c1c(N)n(Cc2ccccc2)c(=O)[nH]c1=O	inactive: -0.334%	
CCOC(=O)CSc1cc(-c2ccccc2)nc2ncnn12		inconclusive: 28.2 µM [activator, single point]
O=C(Nc1ccccc1)N1CCn2c1nc1ccccc12		inconclusive: 3.16 µM [activator, full curve]
CCN(CC)S(=O)(=O)c1ccc(OCC(=O)NCc2ccco2)cc1		inconclusive: 35.5 µM [activator, partial curve, poor fit]
O=C(c1ccc([N+](=O)[O-])o1)N1CCN(Cc2ccccc2)CC1		inconclusive: 20 µM [activator, single point]
CCOC(=O)c1ccc(NC(=O)Cn2ncc(Cl)c(Cl)c2=O)cc1		inconclusive: 1.58 µM [activator, partial curve, poor fit]
Cc1ccc(SC2=C(N(C)C)C(=O)c3ccccc3C2=O)cc1		inconclusive: 25.1 µM [activator, single point]
CSc1nc(N)nc(SCCS(=O)(=O)c2ccc(Cl)cc2)c1C#N		active: 12.6 µM
Clc1cc(-c2ccccc2)nc(-c2ccccc2)n1		inconclusive: 7.94 µM [activator, partial curve, poor fit]
O=c1c2ccccc2cnn1-c1ccc(Cl)cc1	inactive: 6.86%	
O=C1/C(=C/c2ccccc2)CCCc2ccccc21		inconclusive: 25.1 µM [activator, single point]
COC(=O)c1[nH]c2cccc(OC)c2c1NC(=O)CN(C)CC1OCCO1	inactive: 0.0456%	
CCOc1ccccc1C1N=C(c2ccc(OC)cc2)CC(c2ccccc2O)N1 (stereo not drawn)		active: 15.8 µM
Oc1ccc(NCc2ccc(OCc3ccccc3)cc2)cc1		inconclusive: 10 µM [activator, partial curve, poor fit]
CCOCCCNC(=O)c1ccc(-n2c(-c3ccccc3)cc3c2CCCCC3)cc1		inconclusive: 15.8 µM [activator, single point]
O=C(NC(=S)Nc1cccc2cnccc12)c1ccccc1		inconclusive: 1.78 µM [activator, partial curve, poor fit]
CCOC(=O)c1ccc(N=c2sc(C(=O)OC)cc(=O)n2-c2ccc(C(=O)OCC)cc2)cc1		inconclusive: 22.4 µM [activator, single point]

SMILES	activation	Potency
O=C(c1ccccc1)c1cc2ccccc2oc1=O		inconclusive: 17.8 µM [activator, single point]
CCOC(=O)N1CC=C2C(C#N)=C(N)C(C#N)(C#N)[C@H](c3ccsc3)[C@H]2C1		inconclusive: 20 µM [activator, single point]
Cc1ccc(/C=C/C(=O)Nc2cccc3cccnc23)o1		inconclusive: 2.82 µM [activator, partial curve, poor fit]
N#C/C(=C\c1ccc(-c2cccc(Cl)c2)o1)C(=O)Nc1cccc(C(F)(F)F)c1		inconclusive: 7.08 µM [activator, partial curve, poor fit]
Cn1cc(C(=O)Nc2ccccn2)c(=O)c2ccccc21		inconclusive: 20 µM [activator, partial curve, poor fit]
Cc1ccc(C2=NNC3(CCOC(C)(C)C3)S2)cc1 (stereo not drawn)		inconclusive: 15.8 µM [activator, single point]
CCOC(=O)N1CCC2(CC1)OC(=O)C(C)=C2C(=O)NCc1ccccc1OC	inactive: -0.248%	
CSc1ccc(/C=C/C(=O)c2ccc(NC(=O)Cc3ccccc3)cc2)cc1		inconclusive: 35.5 µM [activator, single point]
CCCNC(=O)Cn1nc([N+](=O)[O-])c([N+](=O)[O-])c1C		inconclusive: 15.8 µM [activator, single point]
Cc1ccc(C(C)C)c(OCC(=O)Nc2ccc(O)c(-c3nc4cc(Cl)ccc4o3)c2)c1		inconclusive: 17.8 µM [activator, single point]
COc1ccc(OC)c(C2=Nn3c(nnc3C3CCCCC3)SC2)c1	inactive: 0.474%	
CCOC(=O)C(C(=O)OCC)C(Nc1cccc(Br)c1)c1ccccc1 (stereo not drawn)		inconclusive: 3.98 µM [activator, single point]
CCOc1ccc(CNC(=O)CSc2c3c(nc4ccc(Cl)cc24)CCCC3)cc1		inconclusive: 6.31 µM [activator, partial curve, poor fit]
CC(=O)c1sc(NC(=O)CCS(=O)(=O)c2ccccc2)nc1C		inconclusive: 3.55 µM [activator, single point]
c1csc(C2C3=C(Nc4ncnn42)c2ccccc2OC3)c1 (stereo not drawn)		inconclusive: 10 µM [activator, partial curve, poor fit]
CCCC1S/C(=N/N=C/c2ccco2)NC1=O (stereo not drawn)		inconclusive: 1.26 µM [activator, partial curve, poor fit]
O=C(/C(=C/c1cccc(Cl)c1)c1nc2ccccc2[nH]1)c1ccccc1		inconclusive: 5.62 µM [activator, single point]
COc1ccc([N+](=O)[O-])cc1NC(=O)c1csc(C)c1		inconclusive: 2.82 µM [activator, full curve]
CCC(=O)NC(=S)Nc1cccc(NC(=O)c2ccco2)c1		inconclusive: 14.1 µM [activator, partial curve, poor fit]
Cc1ccc2oc(-c3cccc(NC(=O)c4ccccn4)c3)nc2c1		inconclusive: 11.2 µM [activator, single point]
CC(C)(C)c1ccc(C2=NC(C)(C)N(CC(=O)Nc3ccc(F)c(F)c3)C2=O)cc1	inactive: 5.56%	
C=C1CCC[C@]2(C)C[C@H]3OC(=O)C(CN4CCCCC4CO)[C@H]3CC12 (stereo partly drawn)		inconclusive: 3.55 µM [activator, single point]
